Test results taken from paper PMC12136788.
Some of the results follow.

T1: UNK ZnF1-6 (called full-length) (human, UniProt Q9C0B0 30-357)
T1 sequence: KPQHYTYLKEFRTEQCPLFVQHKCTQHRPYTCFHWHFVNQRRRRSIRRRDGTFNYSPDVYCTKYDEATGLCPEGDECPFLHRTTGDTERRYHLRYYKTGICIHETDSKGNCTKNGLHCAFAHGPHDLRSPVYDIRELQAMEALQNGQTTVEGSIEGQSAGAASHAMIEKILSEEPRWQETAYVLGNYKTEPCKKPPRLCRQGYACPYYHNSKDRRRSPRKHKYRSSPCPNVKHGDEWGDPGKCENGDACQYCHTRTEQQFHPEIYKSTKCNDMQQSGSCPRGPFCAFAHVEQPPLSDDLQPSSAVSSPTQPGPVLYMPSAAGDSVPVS

B1: ENSG00000198589:be:win_6101|CDS|ENSG00000198589|bound_else_gene|NA|bound_elsewhere_windowed (ssRNA)
RNA: GGGAGUUCUACAGUCCGACGAUCUAGGAAAUCAGAACUCAGAAAACGAGAUCCUCCUGGAAGGCGAUGAUGAUACUCUGUCAUCCGUGGAUGAGAAAGAUUUAGAGAAUCUUGCCGGUCCUGUUAGCCUGAGCACACCAGCUCCAACAGAGGAUUGAGCAUCA
B2: chr10:33178043:33178144:-|3pUTR|ENSG00000099250|msi1|total|mutant (ssRNA)
RNA: GGGAGUUCUACAGUCCGACGAUCAAAUUGGAUUGAGAAUGCCUUUUGUUUCCAGGAAAAUAUUGAUCACCAUGAAAGAAGAACCGUUUUUUGUCCCCAGAGACAUUCAUUCCGUUGAUAUAAUCCUACCAGAAGGAAAGCACUCAACAGAGGAUUGAGCAUCA
B3: chr6:4943581:4943691:+|CDS|ENSG00000153046|unk|FALSE|bound_elsewhere (ssRNA)
RNA: GGGAGUUCUACAGUCCGACGAUCUACUUUCAUUCAAUUUAAGAAGCCCAUUAUUGUAGCAGUCAAUGGCCCAGCCAUUGGUCUAGGAGCAUCUAUAUUGCCUCUUUGCGAUGUGGUUUGGGCUAAUGAAAAGGCUUGGUUUCACAACAGAGGAUUGAGCAUCA
B4: chr19:6534681:6534787:+|CDS|ENSG00000125657|unk|total|mutant (ssRNA)
RNA: GGGAGUUCUACAGUCCGACGAUCAGAGGACACGAAGGAGCUGGUGGUGGCCAAGGCUGGAGUCUACUAUGUCUUCUUUCAACCCGAGCUGCGGCGCGUGGUGGCCGGCGAGGGCUCAGGCUCCGUUUCACUUGCGCUGCACCUCAACAGAGGAUUGAGCAUCA
B5: chr16:22286016:22286117:+|3pUTR|ENSG00000103319|msi1|total|mutant (ssRNA)
RNA: GGGAGUUCUACAGUCCGACGAUCCUGAGCCCAGCCAAGACUUCAGUGUUGACUGCUUUGGAGGCACAAACCCAUGCAAGCGUCCGUUCCAAAGUUCAGUGUGUACCCUUAAAUGAACAAUGAAGCAGGUAAAAUUACCCUUGACAACAGAGGAUUGAGCAUCA
B6: chr10:62095068:62095169:+|3pUTR|ENSG00000150347|msi1|total|mutant (ssRNA)
RNA: GGGAGUUCUACAGUCCGACGAUCCCAUUUGCUUCAAUUAAUUAUUUACCUUCCUGUGGAAUAAUAUAUAUAUAUAUAUUUAACCGAACCACCGACCGACCCGCCGAAUUCCGAUUAUAAAUGUGUGAGUGCAGAUUAUCCUGCCAACAGAGGAUUGAGCAUCA
B7: chr13:49912701:49915062:-|three_prime_utr|ENSG00000123178|control|control|control (ssRNA)
RNA: GGGAGUUCUACAGUCCGACGAUCACUUGUAUUUCUGCACUGUUAAAAAAUGUUCAUCAUUUAAUAAAACUUUACCUGGCCUAUAGAUGAAAAUAUAUUCUUAAAAAUAUGCUUGUUGAUGCUGUCUAAGGAACCAAUGUAUUCCAACAGAGGAUUGAGCAUCA
B8: chr20:3864521:3864622:+|CDS|ENSG00000088888|msi1|FALSE|bound_elsewhere (ssRNA)
RNA: GGGAGUUCUACAGUCCGACGAUCGCCCUGAAAGUGCCUGCCAACCCAGCAUCUGUCAGCACAGUGCCCUCCAAGUUGCCAACUAGCUCAAAGCCCCCUGGUGCAGUGCCUUCUAAUGCGCUCACCAAUCCAGCACCAUCCAAACAACAGAGGAUUGAGCAUCA
B9: chr11:8104520:8104621:+|3pUTR|ENSG00000166402|msi1|total|mutant (ssRNA)
RNA: GGGAGUUCUACAGUCCGACGAUCGGCAAUCAGCAAUCAACUGAGGUUUCUUAAUUGUGAUUAUAUUCCUGAGAAUGAAUGAGCCGGAAAGGAAUAAGGAUGUUGUUAUGAUCGCCUGUGGAUUUUGUCCAUUCAUCUCAUGCUCAACAGAGGAUUGAGCAUCA
B10: chr10:30820206:30820444:-|three_prime_utr|ENSG00000183621|control|control|control (ssRNA)
RNA: GGGAGUUCUACAGUCCGACGAUCCUUAUCUAAUCUCCAAAUGAAGAAUGGGCCCAUCUGACAUAUCCUAUGAGCACAAAGCUUAGGGGACUCUUCACCGAAACCUAGACAAAUAUUUGAAUGCAUUUUUUUUUUUUUUUUUUGCAACAGAGGAUUGAGCAUCA
B11: chr11:74334375:74334476:-|3pUTR|ENSG00000165434|msi1|FALSE|unique (ssRNA)
RNA: GGGAGUUCUACAGUCCGACGAUCUUUUUGUUUUAUUUUUAAAAUGUGUAAAACAUCUUUUGUUUUAUAUGCUUUUAAGAAUGUAGAUUGUAAUUUAGGAAAUGGCAUAUAUUCUGCAAAGUGGUAUAAUGUUGUAUAUAUGAACAACAGAGGAUUGAGCAUCA
B12: chr3:160432293:160432405:+|CDS|ENSG00000113810|unk|total|mutant (ssRNA)
RNA: GGGAGUUCUACAGUCCGACGAUCGAAUUGUAUUUGCAACGGGCCGCAGAAUUGGACAAAAUUACUUAUGAAAGAGACAGUUUCCGACAGGCAUAUGAAGAUCUUCGGAAACAAAGGCUUAAUGAAUUUAUGGCAGGUUUUUAUCAACAGAGGAUUGAGCAUCA
B13: chr16:75111859:75112521:-|three_prime_utr|ENSG00000166816|control|control|control (ssRNA)
RNA: GGGAGUUCUACAGUCCGACGAUCGCUGCAGGAGGAGGUGGGCGCCGUGGGCGUGGAGACCAUGCGGCAGCUCAAGGCCGUGCUAGACCCCCAAGGCCUCAUGAAUCCAGGCAAAGUGCUGUGAAGGGGGUCUGAGCACUUAGCCAACAGAGGAUUGAGCAUCA
B14: chr18:2547350:2547451:-|CDS|ENSG00000101574|unk|total|mutant (ssRNA)
RNA: GGGAGUUCUACAGUCCGACGAUCCCGACAGAAGCACCUACGUUUUAUAAAGGAAGAACUUUAUCCCUCUUGGUCUGUGGAGGCCGUUGCUGAGUGGCACUGGGUAAAAGUAAGUUCAGAAGUCCGCUUAUUUGUUAAUACAGCCAACAGAGGAUUGAGCAUCA
B15: chr1:16124349:16124452:-|3pUTR|ENSG00000142627|msi1|FALSE|unique (ssRNA)
RNA: GGGAGUUCUACAGUCCGACGAUCUUUGUUUUGUUGGACAUUUUUUUCGAAUCUUAAUUUAUUAUUUUUUUUAUAUUUAUUGUUAGAAAAUGACUUAUUUCUGCUCUGGAAUAAAGUUGCAGAUGAUUCAAACCGAUCUUGGCUCAACAGAGGAUUGAGCAUCA
B16: chr2:32508095:32508220:+|CDS|ENSG00000115760|unk|FALSE|unique (ssRNA)
RNA: GGGAGUUCUACAGUCCGACGAUCAGCCGAAGUAGCUUCUGCUGUCUGCCUUAGACUACAUCGUCCACGGGAUGCCAGCACAUUAGGCCUUUCACAAAUUAAAUUAUUGGGGCUCACUGCUUUUGGUACCACCUCUUCUGCAACCAACAGAGGAUUGAGCAUCA
B17: chr12:100626600:100626701:+|3pUTR|ENSG00000139354|unk|FALSE|unique (ssRNA)
RNA: GGGAGUUCUACAGUCCGACGAUCAAUUUUAUCAUCAAGUAUUCCCUUAUAAAACCAAGUAACACUUCUUUAUCAGUAACUUUUAGAACUUAAAAGAAAGCAAAAAGUAAAUGGAAUUGUAGGCAAUUUAUGAAUCCUAGUAGACAACAGAGGAUUGAGCAUCA
B18: ENSG00000107863:be:win_2351|CDS|ENSG00000107863|bound_else_gene|NA|bound_elsewhere_windowed (ssRNA)
RNA: GGGAGUUCUACAGUCCGACGAUCAAAGAAUGGAGGAAAGAAAAGCCUCGAGUACCAGUCCGCCUGGCGAUUCUUUGGCUUCCAUCCCAUUUAUAGAUGAACCAACUAGCCCUAGCAUUGAUCAUGAUAUUGCACAUAUCCCUGCAACAGAGGAUUGAGCAUCA
B19: chr3:13816257:13818943:-|three_prime_utr|ENSG00000154764|control|control|control (ssRNA)
RNA: GGGAGUUCUACAGUCCGACGAUCGAAUUCUUCCACCUCGUCGGGAUCCGUUUUCUGCAAUCAAAGUGGACUGCUUGCUUUCCUAGCAGGAUGAUUUUGUUGCUAGGACAAGGAGCCGUGUAGAAGUGUACAUAACUAUUCUUUCAACAGAGGAUUGAGCAUCA
B20: chr20:45097661:45098695:-|CDS|ENSG00000124134|control|control|control (ssRNA)
RNA: GGGAGUUCUACAGUCCGACGAUCGCACGUGCUCGACGAGCUGUGCGUCUUCGCCUUUGGCCAGGAGGCCGACUACUGGGGCCUAGGCGAGAACGCGCUUGCCGCGUGCUGCCGCGCGCGCUACCUGGAGAGGCGGCUGACCCACAACAGAGGAUUGAGCAUCA
B21: chr2:189033597:189033698:-|3pUTR|ENSG00000204262|msi1|FALSE|unique (ssRNA)
RNA: GGGAGUUCUACAGUCCGACGAUCAAGAGUGGGGUAUAUAGAGCCACAACACAUGUUUAUUUUGCUUGGCUGCAGUUGAAAAAUAGAAAUUAGUGCCCUUUUGUGACCUCUCAUUCCAAGAUUGUCAAUUAAAAAUGAGUUUAACAACAGAGGAUUGAGCAUCA
B22: chr9:77717828:77717929:-|3pUTR|ENSG00000156052|unk|FALSE|unique (ssRNA)
RNA: GGGAGUUCUACAGUCCGACGAUCGUGCCUCAUAUCUGAAACAAAGGGAAAUAACACACCCAUUCAAAAGUAAAUAAAUCUCCUAGAAGUUUUUGUUUUUAACAUUUCCAUAUAAAGAGCUCUGUUGAAUGUCAUGAAUAGACUCAACAGAGGAUUGAGCAUCA

molecular target: T1, UNK ZnF1-6 (called full-length); assay: nsRBNS (natural sequence RNA bind-n-seq); RBNS binding buffer (assumed for nsRBNS): 25 mM Tris pH 7.5, 150 mM KCl, 3 mM MgCl2, 0.01% Triton X-100, 500 ug/ml BSA, 20 U/ml SUPERase-In, 4 C; UNK is unkempt and MSI1 is Musashi-1; names of the RNAs are library labels; protein concentration not given here; high values mean tight binding

Binder	binding signal
B1	0.619 enrichment R
B2	0.305 enrichment R
B3	0.53 enrichment R
B4	1.25 enrichment R
B5	0.466 enrichment R
B6	2.12 enrichment R
B7	1.76 enrichment R
B8	0.799 enrichment R
B9	0.251 enrichment R
B10	27.7 enrichment R
B11	3.22 enrichment R
B12	0.43 enrichment R
B13	0.721 enrichment R
B14	0.529 enrichment R
B15	8.98 enrichment R
B16	1.06 enrichment R
B17	4.55 enrichment R
B18	2.15 enrichment R
B19	0.433 enrichment R
B20	0.576 enrichment R
B21	1.5 enrichment R
B22	0.799 enrichment R
